Source: PubChem BioAssay AID488969 (Vanderbilt High Throughput Screening Facility, 2010)
“And” between values parts separate entries of the source, which are not always exact repeats. Equal entries are not always repeated. The full ranking holds about 110,000 compounds; the median of “z-score” is about -0.1, and the highest 2% start at about 2. The list shows a part of the results.

The compounds below were run against Metabotropic glutamate receptor 8 (Rattus norvegicus) (UniProt P70579) (assay: mGluR8 Gi/Go-coupled signaling modulation – cell-based, rat, thallium flux, HTS, primary screen (AID 488969)). Conditions: HEK293 rat mGluR8, GIRK (G protein-gated inwardly rectifying potassium channel) thallium flux, FluoZin2; at 10 µM; stronger effect = higher value; submaximal glutamate (EC20) added with thallium.
Sequence of UniProt P70579 (P70579 whole entry, looked up): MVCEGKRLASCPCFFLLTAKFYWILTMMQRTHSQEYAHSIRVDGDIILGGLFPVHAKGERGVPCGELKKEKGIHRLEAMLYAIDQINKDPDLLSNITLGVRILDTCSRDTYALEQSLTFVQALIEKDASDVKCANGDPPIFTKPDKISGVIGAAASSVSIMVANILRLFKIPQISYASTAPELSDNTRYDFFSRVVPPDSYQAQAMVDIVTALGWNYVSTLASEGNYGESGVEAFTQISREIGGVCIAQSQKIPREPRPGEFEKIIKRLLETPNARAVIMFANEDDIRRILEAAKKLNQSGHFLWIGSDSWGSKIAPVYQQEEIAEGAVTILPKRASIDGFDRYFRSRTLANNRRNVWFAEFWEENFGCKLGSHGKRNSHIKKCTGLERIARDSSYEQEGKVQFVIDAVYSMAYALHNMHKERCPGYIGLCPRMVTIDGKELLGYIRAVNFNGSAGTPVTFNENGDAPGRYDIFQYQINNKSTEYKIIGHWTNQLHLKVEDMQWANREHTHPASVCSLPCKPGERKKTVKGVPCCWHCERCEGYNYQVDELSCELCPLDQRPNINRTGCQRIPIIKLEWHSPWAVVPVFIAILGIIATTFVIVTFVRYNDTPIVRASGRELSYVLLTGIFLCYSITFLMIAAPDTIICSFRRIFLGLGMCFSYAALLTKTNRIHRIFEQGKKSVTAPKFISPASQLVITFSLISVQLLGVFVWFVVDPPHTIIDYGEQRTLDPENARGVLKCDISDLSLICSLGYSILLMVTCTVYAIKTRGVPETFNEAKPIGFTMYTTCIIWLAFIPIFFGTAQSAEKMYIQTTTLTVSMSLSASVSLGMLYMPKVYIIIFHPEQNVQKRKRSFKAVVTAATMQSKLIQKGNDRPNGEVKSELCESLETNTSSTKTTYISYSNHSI

SMILES | z-score
Cc1ccc2c(c1)N(CC(=O)NCC1CCCO1)C(=O)C(C)O2 (configuration not stated) | -0.0365
CCSc1nc2ccccc2[nH]1 | 0.692 and -0.162
O=C1NC(=Nc2ccccc2)c2c1cccc2[N+](=O)[O-] | -0.0364
O=C(Nc1ccc(S(=O)(=O)NC2CCCCC2)cc1)c1ccco1 | -0.383
O=C(Sc1nnnn1C1CCCCC1)c1cccs1 | 0.027
Cc1cc(C)nc(SCCCn2c(=O)[nH]c3ccccc32)n1 | -0.982
COC(=O)c1[nH]c2cccc(OC)c2c1NC(=O)CN1CC2(C)CC1CC(C)(C)C2 (configuration not stated) | 0.828
N#C/C(=C\c1ccc(-c2ccccc2)o1)C(=O)Nn1cnnc1 | -0.000705
O=C(CN1CCC(n2nnc3ccccc32)CC1)NCc1cccs1 | -0.523
O=C(c1ccccc1)c1ccncc1 | 1.21
CCn1cc(C(=O)NCC(=O)OC)c2cc(OC)c(OC)cc2c1=O | 0.247
CC1CCC(NC(=O)c2ccc(/C=C3\Oc4ccccc4N(C)C3=O)cc2)CC1 (configuration not stated) | -0.501
CC(C)(C)NC(=O)CSc1nncn1NCc1ccccc1 | 0.249
CCOC(=O)c1c(NC(=O)CSc2nc3ccccc3s2)sc(C(C)=O)c1C | -0.129
Cc1cccc(NS(=O)(=O)c2cc(C(=O)OCC(=O)Nc3cc(C)on3)ccc2C)c1 | 0.725
Nc1ncnc2c1ncn2CCOc1ccccc1 | -0.53

SMILES | z-score
CCCC(C)C(=O)Nc1ccccc1C(=O)OCC (configuration not stated) | -0.34
CCOC(=O)CN1C(c2ccccc2O)Nc2ccc(Br)cc2C1c1ccccc1 (configuration not stated) | -0.45
CCOC(=O)c1csc(NC(=O)Nc2cccc(Cl)c2)n1 | -0.0455
COc1ccccc1-c1nnc(NC(=O)C(C)SC2=NCCS2)s1 (configuration not stated) | 0.0255
CCN(c1ccccc1)S(=O)(=O)c1cccc(C(=O)OCc2nc3sc(C)c(C)c3c(=O)[nH]2)c1 | -0.263
Cc1cc2nc(SCCOC(=O)Nc3ccccc3)nc(C)c2cc1C | -1.51
CCCCn1nnnc1SCC(=O)N1CCN(C(=O)c2ccco2)CC1 | 1.19
CN(C(=O)C1CCOC1)c1nnc(-c2ccncc2)s1 (configuration not stated) | -0.0854
CC1=NN(C(=O)COc2ccc(C)c(C)c2)C(O)(c2ccc(Cl)cc2)C1 (configuration not stated) | -0.32
CCCn1c(NC(=O)c2ccc(Br)cc2)nc2ccccc21 | 0.157
COC(=O)c1ccc2c(c1)N(Cc1nc(-c3cccc(C)c3)oc1C)C(=O)C1CCCN21 (configuration not stated) | 0.0455
CN(C)c1ccnc2sc3c(=O)n(-c4ccc(Cl)cc4)cnc3c12 | -0.112
CSc1ccc(/C=C/c2cc(=O)c3ccccc3[nH]2)cc1 | -0.181
COc1cc(S(=O)(=O)Nc2ncccc2C)c(OC)cc1Cl | -0.119
COc1ccc(OC)c(-n2c(=O)c3ccccc3c3ccccc3c2=O)c1 | -1.05
CCOC(=O)c1c(-c2ccccc2)nc2ccc(C)cn12 | -0.937
